Test results reported in publication PMC6099588.

System: HCVpp
Test: HCVpp time-of-addition assay
Settings: inhibitor added to HEK293T cells only after transfection (II); not before or during infection of Huh-7.5 cells

Structure (SMILES) | effect on infectivity of HCVpp by time of addition
CC(=O)O[C@H]1[C@H](C)O[C@H](OC[C@H]2O[C@@H](n3ccc(=O)n(C(=O)c4ccccc4)c3=O)[C@@H]3OC(C)(C)O[C@@H]32)C[C@@H]1O[Si](C)(C)C(C)(C)C [Compound 2] | significant decrease in infectivity of HCVpp
CC1(C)O[C@@H]2[C@H](O1)[C@@H](CO[C@@H]1C[C@@H](OCc3ccccc3)[C@H](OCc3ccccc3)[C@@H](COCc3ccccc3)O1)O[C@H]2n1ccc(=O)n(C(=O)c2ccccc2)c1=O [Compound 4] | significant decrease in infectivity of HCVpp
